Reference: PubChem BioAssay AID624296 (National Center for Advancing Translational Sciences (NCATS), 2012)
Hit rate of the full screen: of about 350,000 compounds, about 9,900 (2.8%) were called active. This list was built around the results that the source calls inconclusive (neither active nor inactive); the mix of calls is not that of the screen. Calls come from the whole dose curve; as a rule, active = well fitted activation curve with a large enough effect; inconclusive = small, poorly fitted or top-dose-only effect; inactive = no such curve, though single readings can be large or run the other way. No potency is given beside an inconclusive call; the fits are too rough.

Assay: A quantitative high throughput screen for small molecules that induce DNA re-replication in MCF 10a normal breast cells. For activity, positive = re-replication: % of control where 0% means no effect. Note: nearly all actives have a fitted effect of over 50% in size.
Conditions: MCF 10A DNA re-replication, Hoechst nuclear intensity, 48 h; activity, positive = re-replication: at 46.1 µM (top of the series)
Potency is the fitted concentration of half-maximal effect; tags give direction and shape of the fitted curve.

Row | Structure (SMILES) | Potency | activity, positive = re-replication
1 | CCN(CC)S(=O)(=O)c1ccc(C(=O)Nc2cccc(C)c2)cc1 | inconclusive [activator, single point] | 
2 | CC(C)(C)OC(=O)NCCC(=O)N/N=C/c1cccc2cccnc12 | inconclusive [activator, partial curve, poor fit] | 
3 | CN(CCc1cn[nH]c1)Cc1nc(Cc2ccccc2)no1 |  | inactive: -5.7%
4 | CCN1C(=O)/C(=C\C(=O)c2cccs2)c2cc(Br)ccc21 | inconclusive [activator, single point] | 
5 | FC(F)(F)c1nc(N2CCCC2)ncc1-c1nnnn1-c1ccc(Cl)cc1 | inconclusive [activator, partial curve, poor fit] | 
6 | CCSC1=NC(C)(C)C=C(/C=C/c2ccc(Cl)cc2Cl)N1 | inconclusive [activator, single point] | 
7 | O=C(CN1C(=O)c2ccccc2S1(=O)=O)Nc1ccon1 |  | inactive: 4.4%
8 | CCCCn1c(=O)[nH]c(=O)c2c1nc(-c1ccc(-c3ccccc3Br)o1)n2CCOC | inconclusive [activator, partial curve] | 
9 | Cc1ccc(C)c(S(=O)(=O)N2CCCOC2CNC(=O)C(=O)NCCc2ccccc2)c1 (centres undefined) | inconclusive [activator, single point] | 
10 | CCN(CC)c1ccc(C(=C2C=CC(=[N+](CC)CC)C=C2)c2ccc(S(=O)(=O)O)cc2S(=O)(=O)[O-])cc1 |  | inactive: -3.6%
11 | COc1ccccc1Nc1c2ccccc2nc2ccccc12 | inconclusive [activator, partial curve, poor fit] | 
12 | Cc1csc(SCc2nnc(-c3ccccc3Br)o2)n1 | inconclusive [activator, partial curve, poor fit] | 
13 | CC(C)(C)OC(=O)NCc1ccc(NC(=O)c2nc[nH]c2C(=O)N[C@@H](Cc2ccccc2)C(=O)OC(C)(C)C)cc1 | inconclusive [activator, full curve, poor fit] | 
14 | CC(=O)Nc1ccccc1-c1nnn(CC(=O)Nc2ccc3c(c2)OCCO3)n1 |  | inactive: 14.1%
15 | Cc1ccc(S(=O)(=O)CCC(O)c2ccc(Cl)cc2)cc1 (centres undefined) |  | inactive: 7.3%
16 | O=C(Nc1nncs1)C12CC3CC(CC(C3)C1)C2 | inconclusive [activator, partial curve, poor fit] | 
17 | CSCc1ccc(C(=O)N2CCC(N3CCC(C(=O)NC(C)C)CC3)CC2)o1 | inconclusive [activator, single point] | 
18 | COc1ccc(N(C(=O)C(C)C)S(=O)(=O)c2ccc(Cl)cc2)cc1 |  | inactive: -4.61%
19 | CC(=O)NC12CC3CC(C1)CC(C(=O)N1CCN(S(=O)(=O)c4cccs4)CC1)(C3)C2 |  | inactive: 5.55%
20 | Cc1ccc(NC(=S)N2CCCCC2CO)cc1C (centres undefined) |  | inactive: -0.345%
21 | O=C(Nc1ccc2oc(-c3ccncc3)nc2c1)c1cccs1 | inconclusive [activator, partial curve, poor fit] | 
22 | Cc1ccc(-c2[nH]c(-c3ccc(C(=O)O)cc3)nc2-c2ccccc2)cc1 | active: 9.2 µM | 
23 | Cc1cc(C)c(C(=O)CSc2nnc(N)s2)c(C)c1 | inconclusive [activator, partial curve, poor fit] | 

Row | Structure (SMILES) | Potency | activity, positive = re-replication
24 | O=C(CNC(=O)/C(=C\c1ccc(Br)cc1)NC(=O)c1ccccc1)OCc1ccccc1 | inconclusive [activator, single point] | 
25 | Cc1ccccc1-c1nnc(-c2ccccc2C)o1 | inconclusive [activator, partial curve, poor fit] | 
26 | CCOC(=O)C(CC(=O)Nc1nc(C(C)=O)c(C)s1)C(C)c1ccccc1 (centres undefined) |  | inactive: 14.8%
27 | CCc1nc2ccccc2n1CCC(=O)O | inconclusive [activator, partial curve] | 
28 | CN(c1nc2ccccc2nc1Cl)S(=O)(=O)c1ccccc1 | inconclusive [activator, partial curve, poor fit] | 
29 | COc1ccc(CC(=O)Nc2c(C(=O)N3CCN(c4ccccc4OC)CC3)oc3ccccc23)cc1OC |  | inactive: -2.69%
30 | CN(C)CCCNC(=O)c1ccc(-c2nc(-c3ccc(Cl)cc3)cs2)cc1 | inconclusive [activator, single point] | 
31 | CCn1cc(Br)c(C(=O)Nc2ccc(OC)cc2)n1 | inconclusive [activator, single point] | 
32 | O=S(=O)(c1cnc(Cl)c(Cl)c1)N1CCCc2ccccc21 | inconclusive [activator, single point] | 
33 | O=C(COC(=O)CCS(=O)(=O)c1ccc(F)cc1)NC1CCCCC1 | inconclusive [activator, single point] | 
34 | COc1ccc(N2CCN(C(=O)c3ccc(Cn4c(=S)[nH]c5ccc(N6CCOCC6)cc5c4=O)cc3)CC2)cc1 | inconclusive [activator, single point] | 
35 | Cc1ccc(N2CCOCC2)c2c1C(=O)c1ccccc1C2=O | inconclusive [activator, partial curve, poor fit] | 
36 | CC(=O)c1ccccc1OCc1ccc(C(=O)c2ccccc2)cc1 | inconclusive [activator, single point] | 
37 | CC(=O)C1=C(c2ccccc2)NC(=O)NC1c1ccc2c(c1)OCO2 (centres undefined) | inconclusive [activator, single point] | 
38 | Cc1ccc(SCCNC(=S)Nc2cc(C)cc(C)c2)cc1 | inconclusive [activator, single point] | 
39 | Cc1ccc2nc(NC(=O)C3CCN(C(=O)c4ccc(F)cc4)CC3)sc2c1 | inconclusive [activator, partial curve, poor fit] | 
40 | COc1cc(C2c3sc(=O)[nH]c3SC3C4CCC(C4)C23)ccc1O (centres undefined) | inconclusive [activator, single point] | 
41 | CSc1cccc(NC(=O)CCCn2c(=O)c3cccn3c3cccnc32)c1 |  | inactive: 5.41%
42 | COc1ccc(-n2nc3c(c2NC(=O)COc2cccc(OC)c2)CS(=O)(=O)C3)cc1 |  | inactive: -2.13%
43 | CCc1cc(C(=O)NC2CCCN(Cc3ccccc3F)C2)n(C)n1 (centres undefined) |  | inactive: 0.531%
44 | Cn1cccc1C(=O)NNC(=O)COc1ccccc1F |  | inactive: 6.56%
45 | CC(=O)OCC1CC(COC(C)=O)C(COC(C)=O)CC1COC(C)=O (centres undefined) |  | inactive: -12.1%
46 | Cc1ccc(N=C2CSC(=O)N2)cc1 | inconclusive [activator, single point] | 

Row | Structure (SMILES) | Potency | activity, positive = re-replication
47 | Cc1ccc(C(CC(=O)N2CCNCC2)c2ccccc2)c(O)c1C (centres undefined) |  | inactive: 16.6%
48 | COc1cccc(NC(=O)CN(C)C(=O)c2oc3c(ccc4ccccc43)c2C)c1 | inconclusive [activator, single point] | 
49 | COc1ccc(Br)cc1CNC(=O)Cn1nc(C)n2cccc2c1=O | inconclusive [activator, partial curve, poor fit] | 
50 | CCOC(=O)C1CCN(S(=O)(=O)c2c[nH]c(=O)[nH]c2=O)CC1 | inconclusive [activator, single point] | 
51 | COc1ccc(N2C(S)=C(C#N)C(=O)NC23CCCCC3)cc1 |  | inactive: -10.5%
52 | Cc1nn(C)cc1C(=O)/C=C/c1ccc([N+](=O)[O-])cc1 | inconclusive [activator, single point] | 
53 | CCc1nnc(NC(=O)CC23CC4CC(CC(Br)(C4)C2)C3)s1 |  | inactive: -2.67%
54 | Cc1ccccc1Nc1nc(-c2cccnc2)nc2ccccc12 |  | inactive: 3.7%
55 | COC(=O)C1=C(C)NC(C)=C(C(=O)OC(C)C)C1c1cccc2nonc12 (centres undefined) | inconclusive [activator, single point] | 
56 | Cc1ccc(S(=O)(=O)N2C[C@@H]3[C@H]4CC[C@H](C4)[C@@H]3[C@@H](C)[C@@H]2c2ccn(Cc3ccccc3)c2)cc1 |  | inactive: 13.9%
57 | COc1ccc(NC(=O)NCc2ccc3c(c2)OCO3)cc1OC | inconclusive [activator, single point] | 
58 | O=C1[C@H](Cc2ccccc2)NCCCC[C@@H](c2ccco2)N1Cc1ccccc1 |  | inactive: -0.26%
59 | CC/C=C/C(=O)N1CC2(CC(c3cccc(NC(=O)COc4ccc(Cl)cc4)c3)=NO2)C[C@H]1C(N)=O (some centres undefined) | inconclusive [activator, partial curve, poor fit] | 
60 | CCOc1ccc2nc(SCC(=O)c3ccccc3)sc2c1 | inconclusive [activator, partial curve, poor fit] | 
61 | FC(F)(F)c1cc(-c2ccccc2)nc(N2CCCCC2)n1 | inconclusive [activator, single point] | 
62 | Nc1c(C(=O)N/N=C/c2ccccc2Cl)oc2nc(-c3ccccc3)cc(-c3ccco3)c12 | active: 8.2 µM | 
63 | CC(C)C(=O)NNS(=O)(=O)c1ccccc1[N+](=O)[O-] |  | inactive: -9.42%
64 | O=C(c1ccc(Cl)c([N+](=O)[O-])c1)N1CCN(c2ccccc2)CC1 | inconclusive [activator, single point] | 
65 | Cc1ccc(-c2ccc(=O)n(Cc3ccc(F)cc3Cl)n2)cc1 | inconclusive [activator, single point] | 
66 | COc1cc([C@@H]2C[C@H]3CN(c4ccccc4)C(=O)[C@]34CCCN24)cc(OC)c1OC | active: 18.4 µM | 
67 | N#Cc1ccccc1CSc1nc2ccc(NC(=O)c3ccccc3C(=O)O)cc2s1 | inconclusive [activator, partial curve, poor fit] | 
68 | Brc1ccc(COc2cccc3cccnc23)cc1 |  | inactive: 3.44%
69 | COc1ccc(/C=C/C(=O)Nc2ccc(C(N)=O)cc2)cc1OC | inconclusive [activator, single point] | 
